Source: a collection of fitness landscapes (doi:10.1126/science.1257360)
The list shows a part of the results.

B1: PhoQ; a variant is named by its letters at X, in order, P23837 (parent)
chain: MKKLLRLFFPLSLRVRFLLATAAVVLVLSLAYGMVALIGYSVSFDKTTFRLLRGESNLFYTLAKWENNKLHVELPENIDKQSPTMTLIYDENGQLLWAQRDVPWLMKMIQPDWLKSNGFHEIEADVNDTSLLLSGDHSIQQQLQEVREDDDDAEMTHSVAVNVYPATSRMPKLTIVVVDTIPVELKSSYMVWSWFIYVLSANLLLVIPLLWVAAWWSLRPIEALAKEVRELEEHNRELLNPATTRELTSLVRNLNRLLKSERERYDKYRTTLTDLTHSLKTPLXXLQXXLRSLRSEKMSVSDAEPVMLEQISRISQQIGYYLHRASMRGGTLLSRELHPVAPLLDNLTSALNKVYQRKGVNISLDISPEISFVGEQNDFVEVMGNVLDNACKYCLEFVEISARQTDEHLYIVVEDDGPGIPLSKREVIFDRGQRVDTLRPGQGVGLAVAREITEQYEGKIVAGESMLGGARMEVIFGRQHSAPKDE

Variants of: B1
Assay: enrichment ratio after two sorts for PhoP signalling (ratio (wild type AVST 3.29)); higher = more functional
Conditions: with PhoP (E. coli)

| Variant | enrichment ratio |
| --- | --- |
| DFQQ | ≤ 0.25 |
| IQLM | 3.4 |
| ADWD | ≤ 0.25 |
| MMGP | ≤ 0.25 |
| RRYI | ≤ 0.25 |
| YPPQ | ≤ 0.25 |
| QMCR | ≤ 0.25 |
| GLRV | ≤ 0.25 |
| FFWE | ≤ 0.25 |
| YQFT | ≤ 0.25 |
| EFKF | ≤ 0.25 |
| IVND | ≤ 0.25 |
| PRWN | ≤ 0.25 |
| NNTL | 6.4 |
| VIPH | ≤ 0.25 |
| SRVH | ≤ 0.25 |
| LIMP | ≤ 0.25 |
| TFLT | 0.554 |
| FEVD | ≤ 0.25 |
| ICNE | ≤ 0.25 |
| LSFY | 3.36 |
| RCGW | ≤ 0.25 |
| RHGY | ≤ 0.25 |
| TDSC | 8.66 |

| Variant | enrichment ratio |
| --- | --- |
| GVAC | ≤ 0.25 |
| GEPS | ≤ 0.25 |
| MPNQ | ≤ 0.25 |
| HKDR | ≤ 0.25 |
| QSLW | 0.845 |
| QNET | ≤ 0.25 |
| HSGP | ≤ 0.25 |
| PMNQ | ≤ 0.25 |
| SIWE | 3.02 |
| FTTM | 4.35 |
| LEHD | ≤ 0.25 |
| TIWC | ≤ 0.25 |
| DLTE | ≤ 0.25 |
| PQFS | ≤ 0.25 |
| SHIA | ≤ 0.25 |
| NIGC | ≤ 0.25 |
| VKAN | ≤ 0.25 |
| EFWD | ≤ 0.25 |
| LCMY | ≤ 0.25 |
| WSCV | 0.762 |
| IRFV | ≤ 0.25 |
| SFYE | ≤ 0.25 |
| YSKW | ≤ 0.25 |
| QKVN | ≤ 0.25 |

| Variant | enrichment ratio |
| --- | --- |
| FRAP | 0.359 |
| VSAI | 3.61 |
| YPTH | ≤ 0.25 |
| YHHF | ≤ 0.25 |
| LFFK | ≤ 0.25 |
| YKCS | ≤ 0.25 |
| HNTH | ≤ 0.25 |
| YHIQ | ≤ 0.25 |
| LKNC | ≤ 0.25 |
| IQMA | ≤ 0.25 |
| HYYN | ≤ 0.25 |
| PGVI | ≤ 0.25 |
| TWPE | ≤ 0.25 |
| NVSP | ≤ 0.25 |
| PMDY | ≤ 0.25 |
| SLCH | 11.6 |
| MLAK | ≤ 0.25 |
| PTFW | ≤ 0.25 |
| IYRR | ≤ 0.25 |
| PSCQ | ≤ 0.25 |
| TERD | ≤ 0.25 |
| YCVN | 0.404 |
| AACW | ≤ 0.25 |
| MEYC | ≤ 0.25 |

| Variant | enrichment ratio |
| --- | --- |
| FTDW | ≤ 0.25 |
| ESWI | ≤ 0.25 |
| GQRP | ≤ 0.25 |
| WGYA | ≤ 0.25 |
| DYLE | ≤ 0.25 |
| LKNQ | ≤ 0.25 |
| LCYN | ≤ 0.25 |
| VIVH | ≤ 0.25 |
| QFYK | ≤ 0.25 |
| DSCT | ≤ 0.25 |
| IMIL | ≤ 0.25 |
| PKFS | ≤ 0.25 |
| YLFG | ≤ 0.25 |
| RARL | ≤ 0.25 |
| LQAM | ≤ 0.25 |
| HKYY | ≤ 0.25 |
| SGEN | ≤ 0.25 |
| WPHE | ≤ 0.25 |
| IIGW | ≤ 0.25 |
| HKKY | ≤ 0.25 |
| IKSR | ≤ 0.25 |
| IWTT | ≤ 0.25 |
| TTNL | 9.07 |
| DVWQ | ≤ 0.25 |

| Variant | enrichment ratio |
| --- | --- |
| GMDH | ≤ 0.25 |
| FAYE | ≤ 0.25 |
| LTYY | ≤ 0.25 |
| KTNA | ≤ 0.25 |
| MICA | ≤ 0.25 |
| NKVN | ≤ 0.25 |
| EHKW | ≤ 0.25 |
| MYHQ | ≤ 0.25 |
| HPYF | ≤ 0.25 |
| PRWR | ≤ 0.25 |
| LNKT | ≤ 0.25 |
| IYNL | ≤ 0.25 |
| ACWQ | ≤ 0.25 |
| GMAL | 8.67 |
| SWYN | ≤ 0.25 |
| NTHP | ≤ 0.25 |
| RWLK | ≤ 0.25 |
| HHCH | ≤ 0.25 |
| SARF | ≤ 0.25 |
| NVVR | ≤ 0.25 |
| NQAC | ≤ 0.25 |
| QIPQ | ≤ 0.25 |
| SIPL | 10.4 |
| QTRW | ≤ 0.25 |

| Variant | enrichment ratio |
| --- | --- |
| RLNC | ≤ 0.25 |
| FWWP | ≤ 0.25 |
| VRYI | ≤ 0.25 |
| MLRN | ≤ 0.25 |
| IKMR | ≤ 0.25 |
| NDIG | ≤ 0.25 |
| ELLV | ≤ 0.25 |
| YFGE | ≤ 0.25 |
| RSFY | ≤ 0.25 |
| GCRA | ≤ 0.25 |
| FNDK | ≤ 0.25 |
| LPAQ | ≤ 0.25 |
| YSDN | ≤ 0.25 |
| KDIL | ≤ 0.25 |
| YHCV | ≤ 0.25 |
| NNSQ | ≤ 0.25 |
| HGPF | ≤ 0.25 |
| YSEA | ≤ 0.25 |
| YWDY | ≤ 0.25 |
| DQRN | ≤ 0.25 |
| YTVN | ≤ 0.25 |
| WNPH | ≤ 0.25 |
| DHCW | ≤ 0.25 |
| HQPL | ≤ 0.25 |

| Variant | enrichment ratio |
| --- | --- |
| PGCA | ≤ 0.25 |
| WTLL | 2.9 |
| ERQG | ≤ 0.25 |
| SSNA | ≤ 0.25 |
| VIVY | ≤ 0.25 |
| FCDV | ≤ 0.25 |
| KPPN | ≤ 0.25 |
| LFHN | ≤ 0.25 |
| QYLY | ≤ 0.25 |
| LLNL | ≤ 0.25 |
| NCWM | ≤ 0.25 |
| IVLP | ≤ 0.25 |
| SKDE | ≤ 0.25 |
| ETCW | ≤ 0.25 |
| VNSK | ≤ 0.25 |
| EQIS | ≤ 0.25 |
| FPNK | ≤ 0.25 |
| NSQK | ≤ 0.25 |
| GESI | 1.61 |
| MEEI | ≤ 0.25 |
| ARFD | ≤ 0.25 |
| GKVW | ≤ 0.25 |
| RTCD | ≤ 0.25 |
| GFMW | ≤ 0.25 |

| Variant | enrichment ratio |
| --- | --- |
| QHKA | ≤ 0.25 |
| LGHG | ≤ 0.25 |
| PPVS | ≤ 0.25 |
| YSAK | ≤ 0.25 |
| GAVQ | ≤ 0.25 |
| VCAC | ≤ 0.25 |
| RTTL | ≤ 0.25 |
| KKFN | ≤ 0.25 |
| RYRQ | ≤ 0.25 |
| DVMA | ≤ 0.25 |
| ESYL | ≤ 0.25 |
| QYCL | ≤ 0.25 |
| KFSS | ≤ 0.25 |
| KTTM | ≤ 0.25 |
| TCCP | ≤ 0.25 |
| WYDP | ≤ 0.25 |
| QPRA | ≤ 0.25 |
| QAWT | ≤ 0.25 |
| KALM | ≤ 0.25 |
| PLET | ≤ 0.25 |
| VFMA | ≤ 0.25 |
| KPKP | ≤ 0.25 |
| MFCF | ≤ 0.25 |
| HMLH | ≤ 0.25 |

| Variant | enrichment ratio |
| --- | --- |
| LQAP | ≤ 0.25 |
| ICDK | ≤ 0.25 |
| ATVC | ≤ 0.25 |
| DESS | ≤ 0.25 |
| QNST | 2.38 |
| MDHA | ≤ 0.25 |
| KSPM | ≤ 0.25 |
| AHHY | ≤ 0.25 |
| PTLT | ≤ 0.25 |
| LDHH | ≤ 0.25 |
| HSSH | ≤ 0.25 |
| KHEH | ≤ 0.25 |
| ATMH | 12.3 |
| LAEI | ≤ 0.25 |
| WFYA | ≤ 0.25 |
| LGTW | ≤ 0.25 |
| WMHG | ≤ 0.25 |
| LAWH | ≤ 0.25 |
| KDSL | ≤ 0.25 |
| LLTR | ≤ 0.25 |
| EDCR | ≤ 0.25 |
| MGSD | ≤ 0.25 |
| SIPY | ≤ 0.25 |
| IGHW | ≤ 0.25 |

| Variant | enrichment ratio |
| --- | --- |
| GACS | 4.76 |
| RNYF | ≤ 0.25 |
| EMLY | ≤ 0.25 |
| HILH | ≤ 0.25 |
| WPLQ | ≤ 0.25 |
| TEGQ | ≤ 0.25 |
| NQKR | ≤ 0.25 |
| ADYR | ≤ 0.25 |
| FGMV | 16.7 |
| LHIR | ≤ 0.25 |
| LFPS | ≤ 0.25 |
| WPSD | ≤ 0.25 |
| STWM | ≤ 0.25 |
| IAWD | ≤ 0.25 |
| LSCC | ≤ 0.25 |
| FYNH | ≤ 0.25 |
| IWTI | ≤ 0.25 |
| WVSN | ≤ 0.25 |
| RTHF | ≤ 0.25 |
| SNAR | ≤ 0.25 |
| YEGR | ≤ 0.25 |
| PARE | ≤ 0.25 |
| RRDY | ≤ 0.25 |
| GWMM | ≤ 0.25 |

| Variant | enrichment ratio |
| --- | --- |
| KTHN | ≤ 0.25 |
| PLQL | ≤ 0.25 |
| INDL | ≤ 0.25 |
| TVWI | ≤ 0.25 |
| IETK | ≤ 0.25 |
| QGPW | ≤ 0.25 |
| QVLG | ≤ 0.25 |
| QYWY | 8.23 |
| LALR | ≤ 0.25 |
| PQPI | ≤ 0.25 |
| TLVQ | ≤ 0.25 |
| NKIY | ≤ 0.25 |
| RAPI | ≤ 0.25 |
| TIWL | ≤ 0.25 |
| WDPA | ≤ 0.25 |
| RQAW | ≤ 0.25 |
| GFQR | ≤ 0.25 |
| RTWI | ≤ 0.25 |
| TAHN | 3.41 |
| SVRL | 0.314 |
| GRHT | ≤ 0.25 |
| KDSG | ≤ 0.25 |
| FCDY | ≤ 0.25 |
| GNRN | ≤ 0.25 |

| Variant | enrichment ratio |
| --- | --- |
| DVQN | ≤ 0.25 |
| LRRM | ≤ 0.25 |
| QFPH | ≤ 0.25 |
| HEAG | ≤ 0.25 |
| MGLT | 5.67 |
| IGIE | ≤ 0.25 |
| DKTS | ≤ 0.25 |
| GYSA | ≤ 0.25 |
| PMEY | ≤ 0.25 |
| KFYW | ≤ 0.25 |
| GLWN | ≤ 0.25 |
| MAHQ | ≤ 0.25 |
| MQRA | ≤ 0.25 |
| ADYV | ≤ 0.25 |
| NFWP | ≤ 0.25 |
| RNNA | ≤ 0.25 |
| TDER | ≤ 0.25 |
| QFGF | ≤ 0.25 |
| LQLT | ≤ 0.25 |
| RQIG | ≤ 0.25 |
| NYCM | ≤ 0.25 |
| PKFY | ≤ 0.25 |
| YRNP | ≤ 0.25 |
| TPDY | ≤ 0.25 |

| Variant | enrichment ratio |
| --- | --- |
| HEQF | ≤ 0.25 |
| ALFH | ≤ 0.25 |
| PCNA | ≤ 0.25 |
| AVIE | ≤ 0.25 |
| NMKW | ≤ 0.25 |
| PAAH | ≤ 0.25 |
| VCSF | ≤ 0.25 |
| NEGP | ≤ 0.25 |
| LLNY | ≤ 0.25 |
| HNPC | ≤ 0.25 |
| GFDC | ≤ 0.25 |
| LCCN | ≤ 0.25 |
| IESW | ≤ 0.25 |
| RPAS | 0.311 |
| TAAA | 0.499 |
| IVWF | ≤ 0.25 |
| DTDV | ≤ 0.25 |
| YRFH | ≤ 0.25 |
